Out of some 150,000 compounds screened, about 540 (0.36%) showed an effect of 50% or more. The list shows a part of the results.
tested on: Plasmodium falciparum; test: Primary screen in NF54 nanoGlo assay, in single point, at 2uM, 72h; a lower Z score goes with more inhibition; assay type: functional, Erythrocyte; settings: timepoint 72 hour

SMILES	% Inhibition [%]	Z score
O=C(Cn1nc2ccc(C(=O)NCc3ccccc3)cn2c1=O)Nc1cccc(Cl)c1	-14	1.25
O=C(Nc1ncc(Cc2cccc3ccccc23)s1)c1ccccc1Cl	-3	0.46
COCCN(CCN(C)C)C(=O)c1ccc(Br)c(F)c1	6	-1.02
c1cc2c(cc1-c1nnc(C3CCCC3)o1)OCO2	-22	3.22
CC(C)Oc1cccc(CC(=O)NC2(CF)CCOCC2)c1	15	-1.73
C#CCN(CC#CC)CC(=O)NCc1cccnc1	-11	2.07
CC1(C)CCCN(C(=O)NCCCn2cccn2)CC1	-8	1.55
CCn1c(=O)c(C)nc2cc(-c3noc(Cc4ccc(NC(C)=O)cc4)n3)ccc21	12	-1.16
CCN(C(=O)c1ccc2c(c1)OCCCO2)C1CC1	-7	0.84
CCCCCc1ccc(C(=O)N2CCCC[C@H]2c2nc(-c3ccc(OC)cc3)no2)cc1	6	-0.91
COCCCN(C)C(=O)[C@H](C)Oc1ccc(Cl)cc1	-6	1.04
Cc1cccc(C[C@H](C)NC(=O)CC2=CCCC2)n1	-8	0.86
CCCN(C)C(=O)CCc1ccnc(N(CC)CC)c1	-29	3.08
COc1ccc(N[C@@H](C)c2cn[nH]c2C)cn1	-6	0.7
O=C(Nc1cc(F)ccc1F)C(=O)N1C2CCC1CC(O)C2 (configuration not stated)	2	-0.27
COc1ccc2c(c1)-c1nc(-n3ncc(C(=O)NCCN4CCOCC4)c3C)ncc1CC2	-12	2.15
Cc1ccc(C(=O)N(Cc2ccc(F)cc2)C2CCCCC2)cc1NC(=O)c1ccco1	-5	0.46
Cc1ccc(C)c(-n2c3c(cc(C#N)c2=O)C(=O)C[C@H](c2ccccc2)C3)c1	6	-1.04
O=C(CC1=CCCCC1)N1CCC(C(=O)N2CCCCCC2)CC1	-7	0.84
O=S(=O)(NC1CCCC1)c1ccc(-c2cnc(C3CCCC3)o2)s1	-5	0.62
CC(C)S(=O)(=O)CCCN1C(=O)N[C@@](C)(C(C)(C)C)C1=O	-7	0.77
CCCCN1CCCC[C@@H]1CNC(=O)Nc1c(C)noc1C	-9	1.15

SMILES	% Inhibition [%]	Z score
O=C(CCc1nc(-c2ccsc2)no1)Nc1cccc(C(F)(F)F)c1	-2	0.25
CCN1CCC[C@@H]1CN(Cc1cccnc1)Cc1ccsc1	7	-1.31
CCOc1ccc2nc(NC(=O)[C@H]3CCCN(c4cc(C5CC5)ncn4)C3)sc2c1	8	-1.61
CCOCC1(CNC(=O)c2csc(C)c2)CCC1	-4	0.73
CCc1cc(NC(=O)c2cc(C(C)(C)C)on2)nc(C)n1	-2	0.24
O=C(NCC1CCN(C(=O)c2nc3ncccn3n2)CC1)c1ccc(Cl)cn1	-17	3.17
CCn1cc(-c2nc(-c3ccccc3C)no2)c(=O)c2cc(F)c(N3CCCCC3)cc21	51	-3.9
COc1ccc(-c2csc(C)n2)cc1S(=O)(=O)Nc1ccc(C#N)cc1	-14	1.84
C[C@H](O)CNC(=O)c1ccnc(OCC2CC2)c1	-13	2.51
CCn1cnnc1CCNc1ncnc2oc(C)nc12	-16	2.66
O=C(N[C@@H](Cc1ccccc1)c1nc(-c2cccc(Cl)c2)no1)c1cccs1	5	-0.6
O=C(Cc1nc2c(s1)C(=O)CCC2)NCc1ccco1	-13	1.95
C[C@@H](CC(=O)NCc1ccsc1)NC(=O)OC(C)(C)C	-3	0.31
CN1C(=O)C[C@H](CNC(=O)c2ccc(O)c(Cl)c2)c2ccccc21	-6	1.01
CC(C)C(=O)N(CCN1CCOCC1)Cc1c(-c2ccccc2)noc1N1CCCC1	17	-1.64
Cc1c(Cl)cccc1-n1ncc(C(=O)N2CCN(c3ccc(F)cc3)CC2)c1C1CCN(C(=O)OC(C)(C)C)CC1	4	-0.39
CC(=O)c1c(-c2ccccc2OCc2cccc(F)c2)cnn1C	-8	1.42
COCc1ncc(C)n1CC1CN(C(=O)c2ccoc2)C1	5	-0.88
O=C(NCCn1nc(-c2ccncc2)c2c1CCCC2)c1ccccc1Cl	-14	1.85
CCc1ccc(C(=O)N(C)C[C@@H]2CC(F)(F)CN2C2CN(C)C2)cc1	-13	1.57
COc1ccccc1N1CCN(C(=O)C2CCC(Cn3cnnn3)CC2)CC1 (configuration not stated)	0	0.04
O=C1NCCN1C1CN(Cc2ccn(-c3c(F)cccc3F)n2)C1	-6	0.55

SMILES	% Inhibition [%]	Z score
FC(F)(F)C(CC1CCCO1)Nc1nc(C2CCC2)no1 (configuration not stated)	-17	2.24
CN1CCc2c(CNC(=O)C3CCC3)c3c(c(O)c2C1=O)OCO3	-11	1.44
O=C(c1cncc(Br)c1)N1C2C=CCC1CC2 (configuration not stated)	-10	1.74
CCc1nc(CNc2nc(C)cnc2C)cs1	-13	1.61
CCCc1cnc(C)nc1-c1ccc(C(=O)NCc2nncn2C(C)C)cc1	1	-0.18
COc1ccc(CN(Cc2ccco2)C(=O)c2cccc(F)c2)cc1OS(=O)(=O)c1ccc(F)cc1	-33	2.87
COc1ccc(CCN2CCCN(c3ccc(C(F)(F)F)cn3)CC2)cc1	-14	1.52
COC(C)c1nc(C)c(C(=O)NC2(C)CCCc3ccccc32)s1 (configuration not stated)	-2	0.29
O=C(NCCCOCC1CCCO1)N1CCOC(c2ccc(F)c(F)c2)C1 (configuration not stated)	-12	1.39
Cc1ccc(NC(=O)c2ccc3c(c2)nnn3Cc2ccccc2)cc1C	13	-1.27
COc1ccccc1C(=O)N[C@@H]1c2ccccc2C2(CCNCC2)[C@H]1OC	2	-0.32
Cn1cc(C2CN(C(=O)[C@H]3C[C@@H]3c3ccccc3Cl)CCN2)cn1 (some centres not stated)	6	-0.87
Cc1ncc2c(c1-c1noc(Cn3cc4ccccc4n3)n1)CCNC2	6	-1.12
O=C(c1ccc(C(F)(F)F)nc1)N1C2CCC1CC(n1ccnc1)C2 (configuration not stated)	-8	1.08
CC(C)c1nc(CN2C(=O)c3ccccc3C2=O)n(-c2ccccn2)n1	-7	0.87
CCCN(CC1CCCCO1)C(=O)NC(C)c1cn(C)nc1C (configuration not stated)	-9	1.46
CC(C)CCNC(=O)C(=Cc1ccc(Cl)c(Cl)c1)C(=O)NCCC(C)C	34	-3.8
O=S(=O)(Nc1ccccc1-c1nnc2n1CCCCC2)c1ccc(Cl)cc1	5	-0.77
c1cc2cc(CN3C[C@@H]4CC[C@H]3CN(Cc3cscn3)C4)ccc2[nH]1	-1	0.16
Cc1cc(S(=O)(=O)NCCOCC(N)=O)sc1Cl	2	-0.34
Cc1ccc(CNC(=O)c2cc(N3CCNC3=O)c(F)cc2F)n1C	-11	2.15
COCC1(C(=O)NCCc2cn(C)c3cc(F)ccc23)CCOCC1	-6	0.8

SMILES	% Inhibition [%]	Z score
Cc1ccc(-n2nc(C)c3sc(N4CCC(NC(=O)c5ccccc5C)CC4)nc32)cc1	-7	0.86
CCCNC(=O)CCNC(=O)N1CC[C@]2(CCOC2)C1	-2	0.32
CCCC(NC(C)c1cnccn1)c1cccc(C(F)(F)F)c1 (configuration not stated)	-7	0.82
CCOc1cncc(CN2CCC3(CCc4ccccc4C3=O)CC2)c1	-5	0.83
COc1ncnc(N(C)C)c1NC(=O)c1ccc(Cl)cn1	-14	1.69
Cc1cc(N)n(CC(=O)NCCN(C)CCc2ccccc2)n1	0	0.05
CCOc1ncccc1NC(=O)Cc1c(C)nn(C)c1C	-10	1.79
c1csc(CCN2CCc3cncnc3C2)c1	-19	3.39
Cc1cc(CN(C)C(=O)CN2CCCCCC2)on1	-13	1.25
CN(C)c1ccccc1NC(=O)C1=Cc2ccccc2OC1	-13	2.5
COc1cccc(-c2ccc(N3CCN(C(=O)CN(Cc4ccccc4)C(=O)c4ccc(F)cc4)CC3)nn2)c1	7	-1.24
CC1c2ccc(F)cc2CCN1C(=O)c1cnc(C2CCCO2)s1 (configuration not stated)	6	-0.61
COC[C@H]1CN(c2cc3nncn3c(C)n2)CC(C)(C)O1	-28	2.96
Cc1ccc(C2=Nc3ccccc3N=C(C(F)(F)C(F)F)C2)cc1	-1	0.16
c1nc(-c2noc(C3CC3C3CCCCC3)n2)cs1 (configuration not stated)	4	-0.53
O=S(=O)(Nc1cc(CO)ccc1Br)N1CCCC1	2	-0.3
C[C@@H](C(N)=O)N1CCCN(S(=O)(=O)c2ccc3c(c2)OCCO3)CC1	-4	0.67
CC(C)c1nnc(NC(=O)[C@H]2CCN(C3CCCCC3)C2)[nH]1	9	-1.36
CCOC(=O)C1(F)CN(CCOC2CCCCO2)CC12COC2 (configuration not stated)	-3	0.4
O=C1COc2cccc(C(=O)N3CCC([C@H]4CCOC4)CC3)c2N1	-12	1.28
